± gives the standard deviation of the averaged measurements. This is one part of the list.
The sequences below were run on PfAP2-G AP2 domain (GST-tagged) (assay: gcPBM binding intensity (ln(normalized median fluorescence intensity)); higher = stronger DNA binding).
In short: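 Binding intensity is defined as the maximum Masliner-normalised natural-log median intensity across replicate spots for either probe orientation. It was measured on an Agilent 4 × 180k array of primer-extended double-stranded 36-bp intergenic genomic probes and negative controls, to which GST-tagged P. falciparum DNA-binding domains made in E. coli were applied for 1 h in 1× PBS with 1% milk, 0.2 mg/ml BSA, 0.5% salmon testes DNA and 0.03% Triton X-100. Detection was by Alexa488 anti-GST antibody and scanning at 488 nm.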
With “TGAATTCATAGCAGTTGTACATTGCATGAAGAAACG [XGTACX_site3312]” the “gcPBM binding intensity (ln)” value was 11 ± 0.63.
With “TGTTCCGAAGGTTGTACACACATAGAAATATACATA [CACACA_site3874]” the “gcPBM binding intensity (ln)” value was 11.6 ± 0.74.
For “TCTTGTATACGGCATGCATGTTAGCACATACGGACA [TGCATGCA_site146]”, the “gcPBM binding intensity (ln)” value was 10.9 ± 0.59.
With “TATAAAATATGTATGAGGAATAAAATTAAAAAAAAA [TGCATGCA_negctrl_site178]” the “gcPBM binding intensity (ln)” value was 9.77 ± 0.071.
With “AAAAAAAAAAATTCGGTGCAATGTAATTAATGTAAA [GTGCAC_site9588]” the “gcPBM binding intensity (ln)” value was 9.82 ± 0.071.
With “AATACTTTTTATTTAGTGCATAAGAAAATATAAATC [GTGCAC_site9875]” the “gcPBM binding intensity (ln)” value was 10.2 ± 0.18.
For “ATGGATAATAATAAGTGTACACATATATTTAGAAGA [XGTACX_site244]”, the “gcPBM binding intensity (ln)” value was 11.8 ± 0.86.
In the case of “GGTAGAAAATCAGTTAAACACACACCGAAAAAAAAA [CACACA_site8934]”, the “gcPBM binding intensity (ln)” value is reported as 10.1 ± 0.2.
With “ATTTGTATAATAAGTTGTACAATTCTTACAATATAA [XGTACX_site4164]” the “gcPBM binding intensity (ln)” value was 11.3 ± 0.73.
“AAAAAAAAAAAAAGCACACACACATATGCGTATATA [CACACA_site953]” was tested, and the “gcPBM binding intensity (ln)” value was 10.34 ± 0.057.
TTTAAGCGTTCACTGCTGCACTTTTATGTTGTGACC was tested, and the “gcPBM binding intensity (ln)” value was 10.35 ± 0.099.
“TTACAAATGTAGAAAAGTACATATAATAATAATTTA [XGTACX_site3044]” was tested, and the “gcPBM binding intensity (ln)” value was 11.3 ± 0.83.
With “TATAAGAAATAAAACCTGATTATAAACCTGTAACCA [CACACA_negctrl_site1302]” the “gcPBM binding intensity (ln)” value was 9.79 ± 0.11.
In the case of “ATATAATATGTTGAATGTACTTAAAAAAATGTATCT [XGTACX_site5385]”, the “gcPBM binding intensity (ln)” value is reported as 11.3 ± 0.77.
“AAAAAAAAAAAAAAAACACACATGTATACTAGAATA [CACACA_site7108]” was tested, and the “gcPBM binding intensity (ln)” value was 10.2 ± 0.17.
“TTAAGTTACAATTCTCGTACACATTAAAAGAAAATT [XGTACX_site699]” was tested, and the “gcPBM binding intensity (ln)” value was 11.3 ± 0.99.
For “TAAATATAACAGAATAATATGTGGATTAATAAATGA [CACACA_negctrl_site438]”, the “gcPBM binding intensity (ln)” value was 9.82 ± 0.099.
In the case of “CGCTTTATTTATATATGTACATATATATATATATAC [XGTACX_site5012]”, the “gcPBM binding intensity (ln)” value is reported as 11.3 ± 0.58.
In the case of “AAATTTTTTTTTTAATTTTTTATTTAAAAAAAATAT [TGCATGCA_negctrl_site174]”, the “gcPBM binding intensity (ln)” value is reported as 9.585 ± 0.007.
In the case of “GTTATAAATAAATATACACACATATATAAAATACAT [CACACA_site7146]”, the “gcPBM binding intensity (ln)” value is reported as 10 ± 0.13.
In the case of “TATAACATAAAACACACACACATACATACACAAAAA [CACACA_site1804]”, the “gcPBM binding intensity (ln)” value is reported as 10.2 ± 0.27.
“GTTATACACATTACATGTACAAAAGTTGCACTTCAT [XGTACX_site6023]” was tested, and the “gcPBM binding intensity (ln)” value was 10.9 ± 0.45.
“GTTGCCATCATTTGGCGTACAGTCAAAACCAAATCT [XGTACX_site1398]” was tested, and the “gcPBM binding intensity (ln)” value was 11.6 ± 0.96.
With “AAGGCAAACAGACACACACACATATATACCTATATA [CACACA_site7077]” the “gcPBM binding intensity (ln)” value was 10.2 ± 0.22.
For “TCTATTAAAACAAATTGTACTTATTGATAAAGAATA [XGTACX_site3645]”, the “gcPBM binding intensity (ln)” value was 11.2 ± 0.81.
For “ATTTTTATTTTATATACACACAATAATAATATAATA [CACACA_site4015]”, the “gcPBM binding intensity (ln)” value was 10.1 ± 0.37.
In the case of “TTTGTTCAATTTACATGTACAGATATAATCTAACAT [XGTACX_site370]”, the “gcPBM binding intensity (ln)” value is reported as 11.1 ± 0.83.
With “AAGAGCAACCAAATAGAAAAAGGAAAATAAAAGGAA [CACACA_negctrl_site100]” the “gcPBM binding intensity (ln)” value was 9.76 ± 0.028.
“AACCTATCTATAGGAACAATATATATATATATAATT [CACACA_negctrl_site1707]” was tested, and the “gcPBM binding intensity (ln)” value was 9.755 ± 0.035.
“TATTATGCTATTTAATGTACGGAATTTATATATATA [XGTACX_site564]” was tested, and the “gcPBM binding intensity (ln)” value was 10.9 ± 0.61.
“TTGCTCATTGAAATTATACACACCAAATATATAAAT [CACACA_site2482]” was tested, and the “gcPBM binding intensity (ln)” value was 9.99 ± 0.085.
“ATATGTTTTAAGTGTACACATATAATGTATTTTGTT [CACACA_site4929]” was tested, and the “gcPBM binding intensity (ln)” value was 11.6 ± 0.9.
“AAAAGGGAAAAAATTAAAATTATATATATATATATG [CACACA_negctrl_site137]” was tested, and the “gcPBM binding intensity (ln)” value was 9.54 ± 0.11.
For “TACATATATTTAAGGAGTACAAAAAATAATGATAAA [XGTACX_site3539]”, the “gcPBM binding intensity (ln)” value was 11.4 ± 0.95.
“AAAATATATAAACGCACATATATTTATGTATATATA [CACACA_negctrl_site163]” was tested, and the “gcPBM binding intensity (ln)” value was 9.98 ± 0.057.
In the case of “TAAAAAAAAACATGATGTACATAAAATTTTTTACTT [XGTACX_site7056]”, the “gcPBM binding intensity (ln)” value is reported as 11.3 ± 0.8.
For “AATATATAAACATATACACACAAAAACATATATATA [CACACA_site4855]”, the “gcPBM binding intensity (ln)” value was 9.95 ± 0.085.
For “CAACAACAAATGAGAAGTACATAAATATTAACAATA [XGTACX_site4625]”, the “gcPBM binding intensity (ln)” value was 11.3 ± 0.71.
For “TTATAATACCTACAAAGTACAAACTTAAATATGAAC [XGTACX_site5684]”, the “gcPBM binding intensity (ln)” value was 11 ± 0.76.
For “TTGCTTTTCATTTATTGTACATACCCAGTAGGATAA [XGTACX_site3939]”, the “gcPBM binding intensity (ln)” value was 11.1 ± 0.6.
In the case of “GACATAGTATTAAGTTGTACATATATAAAAATAAAT [XGTACX_site1583]”, the “gcPBM binding intensity (ln)” value is reported as 11.3 ± 0.81.
With “ATGTTTTCAAAAATAAAACATATAAATAAATAAATA [TGCATGCA_negctrl_site226]” the “gcPBM binding intensity (ln)” value was 9.83 ± 0.21.
“AATGTACACGCACCCACACACAAACAAATATAAATA [CACACA_site7319]” was tested, and the “gcPBM binding intensity (ln)” value was 11.4 ± 1.
For “TTACGAATGAATATATGTACATATATATATATATAT [XGTACX_site3790]”, the “gcPBM binding intensity (ln)” value was 11.4 ± 0.61.

— the supplement of paper PMC11417369
